Whole data set: some 110,000 compounds, median “z-score” near -0.1, cut for the highest 2% near 2. This is one part of the list. The source made the active and inactive calls.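 How the source made its calls: active means z-score in the third read window above 3 or below -3; inactive means the rest.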
Each compound was assayed against Metabotropic glutamate receptor 8 (Rattus norvegicus) (UniProt P70579) (assay: rat mGluR8 modulators via GIRK flux, primary screen, cell-based, thallium flux, HTS (AID 488969)). Conditions: HEK293 rat mGluR8, GIRK (G protein-gated inwardly rectifying potassium channel) thallium flux, FluoZin2; at 10 µM; stronger effect = higher value; submaximal glutamate (EC20) added with thallium.
Chain of UniProt P70579 (P70579 whole entry, looked up): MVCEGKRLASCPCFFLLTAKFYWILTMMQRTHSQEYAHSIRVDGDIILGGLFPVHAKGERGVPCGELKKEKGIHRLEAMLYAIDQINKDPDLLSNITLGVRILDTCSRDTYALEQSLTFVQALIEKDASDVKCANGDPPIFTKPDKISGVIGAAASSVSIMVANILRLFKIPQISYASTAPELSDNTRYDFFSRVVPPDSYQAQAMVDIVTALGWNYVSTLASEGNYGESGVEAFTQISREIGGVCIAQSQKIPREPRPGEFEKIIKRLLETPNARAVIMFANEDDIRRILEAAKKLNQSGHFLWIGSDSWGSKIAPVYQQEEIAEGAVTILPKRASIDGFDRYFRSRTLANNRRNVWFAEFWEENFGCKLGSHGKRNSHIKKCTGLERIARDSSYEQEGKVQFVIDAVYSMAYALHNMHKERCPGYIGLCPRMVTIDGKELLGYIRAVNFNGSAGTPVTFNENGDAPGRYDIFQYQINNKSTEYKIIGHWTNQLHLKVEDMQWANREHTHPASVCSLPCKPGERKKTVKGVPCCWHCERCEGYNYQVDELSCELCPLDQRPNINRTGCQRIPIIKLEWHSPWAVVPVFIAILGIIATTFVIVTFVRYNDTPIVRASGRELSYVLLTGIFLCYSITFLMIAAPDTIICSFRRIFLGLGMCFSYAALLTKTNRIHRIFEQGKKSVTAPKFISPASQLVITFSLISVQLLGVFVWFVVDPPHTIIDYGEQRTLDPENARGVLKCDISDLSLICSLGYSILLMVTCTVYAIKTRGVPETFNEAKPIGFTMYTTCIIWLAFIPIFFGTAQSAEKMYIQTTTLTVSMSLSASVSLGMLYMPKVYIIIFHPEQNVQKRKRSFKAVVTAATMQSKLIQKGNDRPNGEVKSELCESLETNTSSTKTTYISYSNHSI
With `Cc1cc(C)n(CC(O)Cn2c3ccccc3c3ccccc32)c(=O)n1` (stereo not given) the z-score was -0.319.
Compound `Cc1ccc(-c2csc(NC(=O)c3cccc([N+](=O)[O-])c3)n2)cc1` has a z-score of 0.0463.
`COC(=O)c1c(NC(=O)COC(=O)c2ccccc2O)sc2c1CCCCC2` gave a z-score of 0.0662.
`Cc1nnc(-c2cccc(Br)c2)c2cn(-c3ccc(Br)cc3)nc12` was tested, and the z-score was -0.232.
`NC1=NC(=O)/C(=C/c2cn(CCC(=O)O)nc2-c2ccc(Cl)cc2)S1` was tested, and the z-score was -0.0317.
For `O=C(COC(=O)c1cccc2c1C(=O)c1ccccc1C2=O)NC1CCCCC1`, the z-score was -0.482.
In the case of `CN(C)c1nc(OCCNC(=O)Nc2ccccc2)nc(N(C)C)n1`, the z-score is reported as -1.06.
Work on `CN(C1=C(NC(=O)c2ccc(Cl)cc2)C(=O)c2ccccc2C1=O)c1ccccc1` yielded a z-score of -0.269.
In the case of `COc1ccc2cc(C(=O)N3CCOCC3)sc(=O)c2c1OC`, the z-score is reported as 0.925.
`COc1ccc(N=C2S/C(=C\c3cccs3)C(=O)N2CC(C)C)cc1` was tested, and the z-score was 0.512.
`C/C=C/COc1nc2c(c(=O)n(C)c(=O)n2C)n1C` was tested, and the z-score was 0.642.
With `CC1(C)CC2CC(C)(CN2C(=O)COC(=O)c2ccc(Cl)c(N)c2)C1` (stereo not given) the z-score was -0.033.
Compound `Cc1ccc(C(=O)c2ccccc2C(=O)OCC(=O)Nc2ccc(SC(F)F)cc2)cc1` has a z-score of -0.192.
`Cc1ccc(S(=O)(=O)N(C)CC(=O)N2CCOCC2)cc1` gave a z-score of 0.0545.
`C[C@H](NC(=O)Cn1cncn1)c1ccccc1` gave a z-score of 0.471.
With `Cn1c(SCC(=O)N2CCN(Cc3ccccc3)CC2)nnc1-c1ccncc1` the z-score was 0.198.
For `CCc1nnc(NC(=O)C2CC(=O)N(Cc3ccco3)C2)s1` (stereo not given), the z-score was 0.998.
For `Cc1cccc(NC(=O)c2sc(NC(=O)c3ccco3)c(C#N)c2C)c1C`, the z-score was -0.624.
With `O=C(c1ccco1)N1CCN(C(=O)c2cc(-c3ccccn3)nc3ccc(Cl)cc23)CC1` the z-score was -0.208.
With `C=CCN(C(=O)Nc1ccc2oc(C)nc2c1)c1ccccc1` the z-score was 0.00235.
For `CC1CCN(C(=O)CSc2nncn2-c2ccccn2)CC1`, the z-score was -0.0486.
`CC(C)Oc1cccc(-c2cc(C(=O)N3CCN(S(C)(=O)=O)CC3)c3ccccc3n2)c1` showed a z-score of -0.532.
`CCOc1ccc(NC(=S)NC(=O)/C=C/c2ccc(OC)c(OC)c2)c([N+](=O)[O-])c1` was tested, and the z-score was -0.602.
For `CC1(C)CC(=O)C=C(NCc2ccncc2)C1`, the z-score was 0.166.
In the case of `Cc1c(Cl)cccc1N1C(=O)c2ccccc2C1=O`, the z-score is reported as 0.51.
With `O=C(O)CNC(=O)/C(=C/c1cccc([N+](=O)[O-])c1)NC(=O)c1ccco1` the z-score was 0.263.
`CCCc1nc2n[nH]c(N)c2c2c1CCCC2` gave a z-score of 0.143.
`CCC(CC)C(=O)N1CCCC(c2nc(-c3cccs3)no2)C1` (stereo not given) was tested, and the z-score was -0.0784.
`O=C(CSCc1ccccc1Cl)Nc1c[nH]c(=O)[nH]c1=O` showed a z-score of 0.0124.
In the case of `COc1cccc(C2CC(c3ccccc3OC)n3ncnc3N2)c1` (stereo not given), the z-score is reported as 0.812.
`Cc1cnc(NC(=O)c2c(O)c3cccc4c3n(c2=O)CCC4)s1` showed a z-score of -0.425.
With `COc1ccc(/C=N/NS(=O)(=O)c2ccccc2)cc1OS(=O)(=O)c1ccc(C)cc1` the z-score was -1.1.
`CC(=O)c1c(C)[nH]c(C(=O)CSc2nnc(-c3ccccc3)n2Cc2ccc3c(c2)OCO3)c1C` gave a z-score of -0.421.
In the case of `CCOC(=O)c1c(NC(=O)c2ccco2)n(C2CCCCC2)c2nc3ccccc3nc12`, the z-score is reported as -0.604.
With `CN(CCC#N)C(=O)COC(=O)c1ccc(CNS(=O)(=O)c2ccc(F)c(Cl)c2)cc1` the z-score was 0.306.
`COc1cc(-c2cc(-c3ccccc3)nc(SCC(=O)Nc3nccs3)c2C#N)cc(OC)c1OC` was tested, and the z-score was -0.105.
`Cc1ccc(-c2csc3ncn(CC(=O)N4CCOCC4)c(=O)c23)cc1C` was tested, and the z-score was -0.43.
`CCS(=O)(=O)c1ccc2c(c1)N(S(C)(=O)=O)CC(C(=O)NCCOC)O2` (stereo not given) was tested, and the z-score was -0.171.
With `CC1CCC2(CC1)NC(=S)N(c1ccccc1)N2` (stereo not given) the z-score was 0.323.
In the case of `CNc1cc(C(F)(F)F)nc(-c2ccccn2)n1`, the z-score is reported as 0.0033.
In the case of `COC(=O)c1[nH]c(=O)c2ccccc2c1OCc1ccccc1`, the z-score is reported as -0.0885.
In the case of `COc1ccc(CSCCN)cc1Cl`, the z-score is reported as 1.4.
`CCC(=O)N1CCc2cc(S(=O)(=O)N(CC)c3cccc(C)c3)ccc21` was tested, and the z-score was -0.46.
With `O=C(/C=C/c1ccccc1)NC1CCS(=O)(=O)C1` (stereo not given) the z-score was -0.123.
`CCOC(=O)c1ccc(N2C(=O)CC(N(C)Cc3ccccc3)C2=O)cc1` (stereo not given) gave a z-score of -0.0145.
With `Clc1cccc(CSc2ncn(-c3ccccc3)n2)c1` the z-score was -0.0723.
`O=C1C2C(C(=O)N1/N=C/c1cc([N+](=O)[O-])ccc1O)C1C=CC2C12CC2` (stereo not given) showed a z-score of 0.212.
With `CCn1nc(C(=O)OCC(=O)c2c[nH]c3ccccc23)c2ccccc2c1=O` the z-score was active: -4.1.
Compound `CCN(CC)CCN1C(=O)c2ccccc2NC1c1ccc(C)cc1` (stereo not given) has a z-score of -0.367.
Compound `O=C(Cn1cnc2c(nnn2Cc2ccc(F)cc2)c1=O)N1CCCCC1` has a z-score of 0.251.
Compound `CC(C)(C)c1ccc(C(=O)Nc2cnccn2)cc1` has a z-score of -0.546.
In the case of `CCOC(=O)c1cnc2c(C#N)c(C)nn2c1-c1ccccc1`, the z-score is reported as 0.439.
Work on `O=C(COc1ccccc1)N1CCN(c2ncnc3c2cnn3-c2ccccc2)CC1` yielded a z-score of -0.137.
Work on `CC(Oc1ccc(Cl)cc1Cl)c1nc(-c2ccc(NC(=O)c3ccco3)cc2)no1` (stereo not given) yielded a z-score of -0.0426.
`CC(=O)Nc1cc(N=Cc2ccc(O)cc2O)c(Cl)cc1Cl` gave a z-score of 0.104.
`COC(=O)c1[nH]c2cccc(OC)c2c1NC(=O)CCN1CCN(c2ccccc2OC)CC1` showed a z-score of 0.146.
Compound `CCCCCn1c(Sc2ccccc2)nc2c1c(=O)[nH]c(=O)n2C` has a z-score of -0.615.
`O=[N+]([O-])c1ccc(Oc2cccc(F)c2)c2ccncc12` was tested, and the z-score was -0.15.
In the case of `CCN(CC)C(=O)c1sc(NC(=O)c2ccncc2)c(C(=O)OC)c1C`, the z-score is reported as 0.216.
With `COc1ccc(-n2c(Cc3cccn3C)nnc2SCC(=O)Nc2cccc(OC)c2)cc1` the z-score was -0.439.
With `Cc1ccc(C(=O)Oc2oc(-c3ccco3)nc2C=Nc2ccc(Cl)cc2)cc1` the z-score was -0.0764.
With `O=C(Nc1cccc(S(=O)(=O)N2CCCCCC2)c1)c1ccc2ccccc2n1` the z-score was -0.389.
`COc1ccccc1NC(=O)N1CCCC1C(=O)Nc1nnc(C(C)C)s1` (stereo not given) was tested, and the z-score was -1.03.
`OC(COCc1cccs1)CN1CCN(c2cccc(Cl)c2)CC1` (stereo not given) gave a z-score of -0.233.
Compound `Brc1cccc(-c2nnco2)c1` has a z-score of 0.176.
`C=CCNC(=O)NS(=O)(=O)c1ccc(C)cc1` was tested, and the z-score was -0.483.
Compound `O=C(OCc1ccc([N+](=O)[O-])cc1)C1CC(=O)N(c2ccccc2)C1` (stereo not given) has a z-score of -0.475.
`CCN(CC)c1ccc(NC(=O)CSc2nnc(N)s2)cc1C` gave a z-score of -0.622.
For `CCC(=O)N/C(=N/c1nc(C)cc(C)n1)Nc1ccc(OC)cc1`, the z-score was -1.29.
`O=C(NCCSCc1ccco1)Nc1ccccc1` showed a z-score of 0.648.
Work on `COc1ccc(OC2OC3COC(c4ccco4)OC3C(O)C2NC(C)=O)cc1` (stereo not given) yielded a z-score of -0.0825.
Work on `CC(C)C(=O)N1C2CCC1CC(O)(c1ccc(F)cc1)C2` (stereo not given) yielded a z-score of -0.705.
For `CCCOc1ccc(CSc2nnc(CCC)n2N)cc1`, the z-score was -0.749.
For `COCCNS(=O)(=O)c1ccc(-c2ccc(C)cc2)cc1`, the z-score was -0.0903.
Compound `O=C1CC(C(=O)Nc2ccccc2C(=O)O)C(c2ccccc2)O1` (stereo not given) has a z-score of -0.72.
With `COc1ccccc1NC(=O)c1ccc(NC(=O)CSc2nnnn2C)cc1` the z-score was 1.11.
For `O=C(NC1CCCC1)C1CCCN1C(=O)Nc1ccccc1` (stereo not given), the z-score was 0.644.
For `CCOC(=O)c1nnn(-c2nonc2N)c1CN(CC)CC`, the z-score was -0.751.
With `COc1ccc(C2=NN(C(=O)CSc3ncccn3)C(c3ccc(OC)cc3)C2)cc1` (stereo not given) the z-score was -0.254.
With `Cc1cc(C)nc(NC(=O)c2cccc([N+](=O)[O-])c2C)n1` the z-score was 0.168.
Compound `CCCCC(C(=O)OCC(=O)c1ccc(OC)cc1)N1C(=O)c2ccccc2C1=O` (stereo not given) has a z-score of -0.667.
In the case of `CCOc1ccc(/C=N/OCC(=O)Nc2cc(C)on2)cc1`, the z-score is reported as -0.838.
Work on `CCn1nc(C(=O)Nc2nc3ccc(C)cc3s2)c2ccccc2c1=O` yielded a z-score of 0.218.
`Cc1cc2ccccc2nc1Br` gave a z-score of 0.061.
Compound `CS/C(=N\S(=O)(=O)c1ccc(Cl)cc1)c1ccccc1` has a z-score of -0.184.
`CCNc1ccccc(C(=O)/C=C/c2ccc3c(c2)OCO3)c1=O` showed a z-score of -0.677.
Work on `CCn1ncc(C2=NOC(C(=O)N3CCN(c4ccccc4)CC3)C2)c1C` (stereo not given) yielded a z-score of -0.631.
Compound `Cc1ccccc1NC(=S)NCc1ccc(Cl)cc1` has a z-score of 0.236.
In the case of `COc1ccccc1N1CCN(C(=O)c2ccc([N+](=O)[O-])s2)CC1`, the z-score is reported as -0.268.
Work on `O=C(O)CNC(=O)c1ccc(OC(F)F)cc1` yielded a z-score of -1.34.
`Nc1nc(SC2c3cccc4cccc(c34)C2NS(=O)(=O)c2ccccc2)n[nH]1` (stereo not given) gave a z-score of -0.0228.
In the case of `CCOC(=O)c1c(C)c(C(=O)Nc2cc(F)ccc2F)c(C)n1C`, the z-score is reported as -0.35.
Work on `COCCn1c(C)cc(C2=NNC(=Nc3ccccc3F)SC2)c1C` yielded a z-score of 0.0839.
Work on `CC(=O)N1N=C(c2ccc(C(C)(C)C)cc2)OC1(C)C` yielded a z-score of -0.0401.
With `CS(=O)(=O)N(CC(=O)N1CCN(c2ccccc2F)CC1)c1ccc2c(c1)OCCO2` the z-score was -0.153.
`O=c1c2ccccc2nc(SCc2nnc(-c3ccccc3Br)o2)n1Cc1ccco1` gave a z-score of 0.167.
`O=C1c2cccc3c([N+](=O)[O-])ccc(c23)C(=O)N1c1nccs1` gave a z-score of -0.298.
With `O=C(Cc1cccs1)Nc1nnc(SCC(=O)N2CCCCC2)s1` the z-score was 0.305.
`CC(=O)Nc1cccc(OCC(=O)NS(=O)(=O)c2ccc(Cl)cc2)c1` gave a z-score of 0.0496.
`CN(C)S(=O)(=O)c1ccc(NC(=O)c2cccnc2)cc1` gave a z-score of -0.0468.
In the case of `CCOC(=O)/C(C#N)=C/Nc1ccccc1OC`, the z-score is reported as -0.38.
Compound `O=C(CNC(=O)c1ccccc1)Nc1cccc(C(F)(F)F)c1` has a z-score of -0.0648.
In the case of `COc1ccc(-c2ccc(S(=O)(=O)N3CCOCC3)cc2)cc1`, the z-score is reported as 0.279.
Work on `CC(C)Cc1nc(NCCN2CCOCC2)c(C#N)c2c1COC(C)(C)C2` yielded a z-score of -0.172.
`Cc1c(C(=O)OCC(=O)N2c3ccccc3CC2C)oc2ccccc12` (stereo not given) gave a z-score of 0.445.
`CNc1nc(Nc2ccc(C(C)=O)cc2)nc(OC(C(F)(F)F)C(F)(F)F)n1` showed a z-score of -0.374.
`CCOC(=O)C1=C(C(F)(F)F)Nc2ncnn2C1c1cccc(OC)c1OC` (stereo not given) gave a z-score of 0.178.
`Cc1ccccc1OCCNc1ccc(C(F)(F)F)cc1[N+](=O)[O-]` showed a z-score of -0.364.
Compound `Cc1ccccc1C(=O)NC(C(=O)Nc1nc2c(s1)CCCC2)C(C)C` (stereo not given) has a z-score of -0.323.
`CCCn1nc(C(=O)OCC(=O)Nc2ncc(Cl)c(C)c2Cl)c2ccccc2c1=O` gave a z-score of -1.02.

From PubChem BioAssay AID488969 (Vanderbilt High Throughput Screening Facility, 2010)
